From the supplement of paper PMC3334620 come the findings set out here.

Over roughly 33,000 sequences, “E-score (-0.5 to 0.5)” has its median near -0.041; the highest 2% begin near 0.37. This is one part of the list.

The target in the assay is T1, Ecm22 (UniProt Q05958).
T1 sequence: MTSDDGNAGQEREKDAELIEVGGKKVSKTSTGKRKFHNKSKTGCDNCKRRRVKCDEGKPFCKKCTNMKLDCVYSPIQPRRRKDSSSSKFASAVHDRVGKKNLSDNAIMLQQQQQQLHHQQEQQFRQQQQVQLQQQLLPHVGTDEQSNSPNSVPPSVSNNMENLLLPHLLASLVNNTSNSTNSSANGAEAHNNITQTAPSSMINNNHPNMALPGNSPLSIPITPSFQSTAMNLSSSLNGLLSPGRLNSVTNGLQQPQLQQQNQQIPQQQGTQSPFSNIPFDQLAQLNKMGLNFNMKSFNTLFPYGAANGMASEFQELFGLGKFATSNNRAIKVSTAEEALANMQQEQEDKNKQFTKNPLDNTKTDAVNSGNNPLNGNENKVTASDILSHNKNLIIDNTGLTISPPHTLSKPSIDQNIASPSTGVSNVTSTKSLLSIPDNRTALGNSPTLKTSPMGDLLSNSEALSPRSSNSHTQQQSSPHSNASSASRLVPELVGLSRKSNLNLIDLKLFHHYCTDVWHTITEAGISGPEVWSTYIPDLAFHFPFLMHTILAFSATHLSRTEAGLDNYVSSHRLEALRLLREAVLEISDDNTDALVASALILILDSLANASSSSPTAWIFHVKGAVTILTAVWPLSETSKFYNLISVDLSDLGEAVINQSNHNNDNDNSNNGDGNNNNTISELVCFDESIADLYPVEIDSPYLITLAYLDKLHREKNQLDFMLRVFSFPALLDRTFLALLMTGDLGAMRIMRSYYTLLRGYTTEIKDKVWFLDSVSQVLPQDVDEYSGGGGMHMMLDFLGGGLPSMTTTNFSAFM
Briefly: PBM E-score (8-mer binding enrichment) (E-score (-0.5 to 0.5)); higher = stronger / more preferred TF binding; most listed sequences are background and not binding sites. Conditions: protein concentration: 200 nM; construct: GST-full length. The procedure, abridged:
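Universal all-10-mer Agilent arrays, fresh or stripped once, were converted to double-stranded form by primer extension. GST-tagged yeast transcription factors from PURExpress in vitro transcription/translation, full-length or DNA-binding domain only, were applied at about 100-200 nM and detected with fluorescent anti-GST. After masliner normalisation, the Universal PBM Analysis Suite scored each ungapped eight-base word together with its reverse complement by E-score.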
In the case of AGTAGAAA, the “PBM E-score” value amounted to 0.209.
With CACTTACC the figure was 0.123; with TGCCATAA, -0.175; with CGGGGAAA, 0.129.
Then GAAGTAAC, with 0.00286; and GTAACAAC, with 0.0567; and AAGTCTTA, with -0.235.
With GGCGTGCA the figure was -0.335; with GCTAACAA, -0.0961.
For CGTCGATC, the “PBM E-score” value was determined as 0.0984.
As for CTCATCGC, the “PBM E-score” value is 0.12.
Then ACCATAGA, with -0.0717.
With GTGCATGA the figure was -0.0809.
With TACACACA the figure was 0.114; with CTAACAAA, -0.111.
Take AACCAGTA: the “PBM E-score” value was 0.0606.
Then AAACTGAT, with -0.143; and ATAATGAG, with 0.0122; and CACACCTG, with -0.231.
Then GCCTACCA, with -0.208; and AGGCACGG, with -0.211; and CTCAGTTC, with -0.0715.
Then AAGACGTG, with -0.277; and GCATAGTA, with 0.145.
As to AGATTGAT, the “PBM E-score” value is -0.192.
Then GCCGTCTA, with -0.065; and CATGTTGA, with 0.00657; and CCATGCTA, with -0.221.
With ATCTGTCG the figure was 0.273; with ATCCCTTA, 0.0128.
On to TCTTCAAA, for which the “PBM E-score” value was -0.272.
Then ATCTAAAA, with -0.0793; and CTGATAAC, with 0.0201; and AATTTTTC, with -0.00256.
Then CGCACTCC, with -0.141; and ACCCGAAT, with 0.193.
Then ACTGACTG, with -0.0687.
For TAATACTA, the “PBM E-score” value stood at 0.114.
With AACGGACA the figure was 0.18; with CCTAATGC, -0.239.
Then AGGCGTAC, with 0.189; and ACGGAGCC, with -0.084; and ACTTGTAG, with 0.00491.
Then GACTTAGC, with -0.147.
With ACAGTGCC, the “PBM E-score” value was determined as 0.018.
With ACCTCGGC the figure was 0.0664; with TCCTCGAA, 0.00767.
Then GAAAATTC, with -0.0137; and ATCCGCAC, with -0.0995.
With GGATACAC the figure was -0.032; with CACAATCA, -0.129.
ATCTTGCC: the “PBM E-score” value was -0.0639.
Then CCATAAAG, with -0.136; and AGACGCAT, with -0.0787.
Then TCCCCGGA, with 0.00406; and GAACCGCC, with -0.00706; and CTAGTTTC, with 0.0456.
Regarding CAGGGGAA, the “PBM E-score” value is -0.0465.
Then CGTTCGCC, with 0.196; and CGTAAGGC, with 0.143; and TCGCACCA, with 0.324.
Turning to CGCACGGA, the “PBM E-score” value stood at 0.0184.
GAGATTAC: the “PBM E-score” value was found to be 0.0343.
CGGTCGCC: the “PBM E-score” value came to 0.183.
For the sequence CTACACCC, the “PBM E-score” value is -0.4.
Then GCGGCCAC, with -0.227; and CGGTATCC, with 0.0456.
On to TTACCCAA, for which the “PBM E-score” value was -0.096.
ACCACACT: the “PBM E-score” value was -0.0561.
Regarding ATAAATAT, the “PBM E-score” value came out at 0.099.
Then CTGAGGGC, with -0.18; and CCCTCGCG, with 0.25; and TAGTGCGA, with 0.0691.
Then TAGCTTGA, with 0.0442; and ATAATTGA, with 0.0412.
For GACGAAGA, the “PBM E-score” value stood at 0.0867.
With CGTGTAAC the figure was -0.00508.
With ATCCCTCC the figure was -0.275.
Take AGTGAGAA: the “PBM E-score” value was -0.0668.
With AGTACCAT the figure was 0.0273.
With GCTCGCTA the figure was 0.31; with ATAGGAGG, -0.29; with TGGAATAA, -0.0683.
Then CAGACATG, with -0.147.
AGCTACCC: the “PBM E-score” value was -0.256.
On to ATTATGCC, for which the “PBM E-score” value stood at 0.0538.
